# Results: the supplement of paper PMC9446081
# In all, about 39,000 compounds went through this assay and about 220 (0.56%) showed activity. Some of the results follow.
# Tested on: Escherichia coli K-12 BW25113
# Assay: relative growth (OD600 normalised to plate interquartile mean) (fraction); higher = less growth inhibition, active = 0.2 or less
# Settings: 50 µM; LB; incubation time: overnight (16-24 h)
# 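Note: static incubation at 37 °C against the wild-type strain, values averaged over two biological replicates.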
row,SMILES,relative growth
1,CC[C@@H](N)c1ccc(C)cn1,inactive: 0.992
2,C[C@H]1CN([C@@H](C)CO)C(=O)c2cc(C#CCN(C)C)cnc2O[C@H]1CN(C)C(=O)CCN1CCCCC1,inactive: 1.01
3,CC(C)NC(=O)Nc1cccc2c1O[C@@H](CN(C)Cc1ccc(-c3ccccc3)cc1)[C@H](C)CN([C@H](C)CO)C2=O,inactive: 1.01
4,C[C@@H]1CN([C@H](C)CO)C(=O)c2cc(Br)cnc2O[C@H]1CN(C)S(=O)(=O)c1ccccc1,inactive: 1.01
5,COc1ccc(S(=O)(=O)N(C)C[C@@H]2OCc3cn(nn3)CCCC(=O)N([C@H](C)CO)C[C@@H]2C)cc1,inactive: 1.04
6,COCCNC(=O)C[C@@H]1C[C@@H]2c3cc(NC(=O)COC)ccc3O[C@@H]2[C@H](CO)O1,inactive: 0.951
7,COC1=C2C[C@H](C)C[C@H](OC)[C@@H](O)[C@H](C)/C=C(\C)[C@H](OC(N)=O)[C@H](OC)/C=C/C=C(\C)C(=O)NC(=CC1=O)C2=O,inactive: 1.01
8,C[C@H]1CN([C@@H](C)CO)C(=O)Cc2cc(NS(=O)(=O)c3ccccc3)ccc2O[C@H]1CN(C)S(=O)(=O)c1cn(C)cn1,inactive: 1.01
9,CC(C)C#Cc1ccc2c(c1)O[C@@H](CN(C)C(=O)c1cccc(F)c1)[C@@H](C)CN([C@@H](C)CO)S2(=O)=O,inactive: 0.979
10,COc1ccccc1NC(=O)N(C)C[C@@H]1Oc2cc(Br)ccc2S(=O)(=O)N([C@@H](C)CO)C[C@H]1C,inactive: 1.01
11,C[C@@H]1CCCCO[C@H](CN(C)C(=O)Nc2ccc3c(c2)OCO3)[C@H](C)CN([C@@H](C)CO)C(=O)c2cc(NS(=O)(=O)c3ccc(F)cc3)ccc2O1,inactive: 1.01
12,C[C@@H]1CN([C@@H](C)CO)S(=O)(=O)c2ccc(-c3cncnc3)cc2O[C@@H]1CN(C)C(=O)c1ccc2c(c1)OCO2,inactive: 0.993
13,C[C@H](CO)N1C[C@H](C)[C@H](CN(C)C(=O)Nc2ccccc2)OCCCC[C@H](C)Oc2ccc(NC(=O)NC3CCCCC3)cc2C1=O,inactive: 0.993
14,COc1ccc(NC(=O)N(C)C[C@H]2OCCCC[C@H](C)Oc3ccc(NC(=O)c4ccncc4)cc3C(=O)N([C@H](C)CO)C[C@@H]2C)cc1,inactive: 1.01
15,C[C@@H]1CN([C@H](C)CO)C(=O)c2cc(C#Cc3ccccc3)cnc2O[C@H]1CN(C)S(=O)(=O)c1ccccc1F,inactive: 1.03
16,COc1ccc(NC(=O)Nc2ccc3c(c2)C(=O)N([C@H](C)CO)C[C@@H](C)[C@H](CN(C)CC2CCCCC2)OCCCC[C@@H](C)O3)cc1,inactive: 0.987
17,C[C@@H]1CN([C@@H](C)CO)C(=O)c2cccc(NC(=O)Nc3ccc(F)cc3)c2O[C@H]1CN(C)S(=O)(=O)c1cn(C)cn1,inactive: 0.984
18,CCCC(=O)Nc1ccc2c(c1)C(=O)N(C)[C@H]1CC[C@@H](CC(=O)NCCN3CCCCC3)O[C@@H]1CO2,inactive: 1.01
19,COc1ccc(S(=O)(=O)N(C)C[C@@H]2OCCCC[C@H](C)Oc3ccc(NC(=O)Nc4ccccc4)cc3C(=O)N([C@H](C)CO)C[C@H]2C)cc1,inactive: 1.02

row,SMILES,relative growth
1,O=C(NCc1ccccc1)[C@@H]1c2ccccc2C(=O)N(CC23CC4CC(CC(C4)C2)C3)[C@H]1c1ccc(CO)cc1,inactive: 1.03
2,C[C@@H]1CN([C@@H](C)CO)S(=O)(=O)c2ccc(C#Cc3ccc(F)cc3)cc2O[C@@H]1CN(C)S(C)(=O)=O,inactive: 1.02
3,C[C@@H]1CCCCO[C@@H](CN(C)Cc2ccc3c(c2)OCO3)[C@@H](C)CN([C@@H](C)CO)C(=O)c2cc(NC(=O)C3CCCCC3)ccc2O1,inactive: 1.03
4,COCC#Cc1ccc2c(c1)O[C@@H](CN(C)Cc1ccc3c(c1)OCO3)[C@H](C)CN([C@@H](C)CO)S2(=O)=O,inactive: 1.03
5,COc1ccc([Si](C)(C)[C@H]2[C@H](CCn3cc([C@H](O)c4ccccc4)nn3)O[C@@]3(C(=O)N(Cc4ccc(N5C(=O)c6cccc7cccc5c67)cc4)c4ccccc43)[C@@H]2C)cc1,inactive: 1.02
6,O=C1NC(=O)C(c2cnc3ccccn23)=C1c1cn2c3c(cc(F)cc13)CN(C(=O)N1CCCCC1)CC2,inactive: 1.01
7,O=C(C[C@@H]1C[C@H]2c3cc(NC(=O)Cc4ccncc4)ccc3O[C@H]2[C@H](CO)O1)NCc1cc(F)ccc1F,inactive: 1
8,C[C@H](CO)N1C[C@H](C)[C@@H](CN(C)C(=O)Cc2cccnc2)Oc2cc(-c3cncnc3)ccc2S1(=O)=O,inactive: 0.995
9,C[C@H]1CN([C@@H](C)CO)C(=O)c2ccccc2-c2ccccc2CO[C@H]1CN(C)C(=O)c1cc(Cl)cc(Cl)c1,inactive: 0.989
10,C[C@H](CO)N1C[C@H](C)[C@H](CN(C)C(=O)c2ccccc2)OCCCC[C@H](C)Oc2ccc(NC(=O)NC3CCCCC3)cc2C1=O,inactive: 0.978
11,C[n+]1ccc(/C2=C3\C=CC(=N3)/C(c3cc[n+](C)cc3)=c3/cc/c4[n]3[Fe][n]3c2ccc3/C(c2cc[n+](C)cc2)=C2/C=CC(=N2)\C=4c2cc[n+](C)cc2)cc1,inactive: 0.703
12,Cc1noc(C)c1S(=O)(=O)Nc1cccc2c1O[C@@H](CN(C)Cc1ccccc1)[C@@H](C)CN([C@H](C)CO)C2=O,inactive: 0.865
13,CO[C@H]1CN(C)C(=O)c2cc(NC(=O)Nc3ccccc3F)ccc2OC[C@@H](C)N(Cc2ccccc2C(=O)O)C[C@@H]1C,inactive: 0.972
14,CO[C@H]1CN(C)C(=O)c2ccc(NS(C)(=O)=O)cc2OC[C@@H](C)N(C(=O)C2CCCCC2)C[C@@H]1C,inactive: 0.901
15,COc1ccc(S(=O)(=O)N(C)C[C@@H]2Oc3c(NC(=O)c4cc(C)nn4C)cccc3C(=O)N([C@@H](C)CO)C[C@@H]2C)cc1,inactive: 0.975
16,COc1ccc(NC(=O)N(C)C[C@H]2Oc3ncc(C#C[C@H](C)O)cc3C(=O)N([C@@H](C)CO)C[C@@H]2C)cc1,inactive: 0.981
17,C[C@@H]1CCCCO[C@H](CN(C)C(=O)Nc2cccc3ccccc23)[C@H](C)CN([C@H](C)CO)C(=O)c2cc(NS(C)(=O)=O)ccc2O1,inactive: 0.916
18,Cc1noc(C)c1NC(=O)Nc1ccc2c(c1)C(=O)N([C@@H](C)CO)C[C@@H](C)[C@H](CN(C)C(=O)Nc1cccc3ccccc13)O2,inactive: 1
19,C[C@H](CO)N1C[C@H](C)[C@@H](CN(C)Cc2ccncc2)Oc2ccc(NC(=O)c3ccncc3)cc2CC1=O,inactive: 0.986

row,SMILES,relative growth
1,COc1ccc(NC(=O)Nc2ccc3c(c2)CC(=O)N([C@@H](C)CO)C[C@H](C)[C@@H](CN(C)Cc2ccc(C(=O)Nc4ccccc4N)cc2)O3)cc1,inactive: 0.992
2,COc1ccc(NC(=O)N(C)C[C@H]2Oc3c(NC(=O)C4CC4)cccc3C(=O)N([C@@H](C)CO)C[C@H]2C)cc1,inactive: 0.999
3,Cc1ccc(-c2ccc3c(c2)O[C@H](CN(C)Cc2cncnc2)[C@@H](C)CN([C@H](C)CO)S3(=O)=O)cc1,inactive: 1.02
4,C[C@@H]1CN([C@H](C)CO)C(=O)CCCn2cc(nn2)CO[C@@H]1CN(C)S(=O)(=O)c1cn(C)cn1,inactive: 0.977
5,C[C@@H]1[C@@H]([Si](C)(C)F)[C@H](CCn2cc([C@H](O)c3ccccc3)nn2)O[C@@]12C(=O)N(c1ccccc1)c1ccccc12,inactive: 1
6,CO[C@@H]1CN(C)C(=O)c2ccc(NC(=O)c3ccccc3)cc2OC[C@H](C)N(C(=O)CN(C)C)C[C@@H]1C,inactive: 1.01
7,C[C@@H]1CCCCO[C@@H](CN(C)C)[C@@H](C)CN([C@@H](C)CO)C(=O)c2cc(NS(=O)(=O)c3cn(C)cn3)ccc2O1,inactive: 0.916
8,C[C@H](CO)N1C[C@H](C)[C@H](CN(C)Cc2cccc(C(F)(F)F)c2)Oc2ncc(-c3cccc(C(F)(F)F)c3)cc2C1=O,inactive: 1.02
9,C[C@@H]1CN([C@@H](C)CO)C(=O)c2cccc(NC(=O)CCCCCC(=O)Nc3ccccc3N)c2O[C@@H]1CN(C)C(=O)Nc1ccc(F)cc1,inactive: 0.993
10,C[C@H]1CN([C@@H](C)CO)C(=O)c2cc(NC(=O)Nc3ccc(C(F)(F)F)cc3)ccc2O[C@@H]1CN(C)Cc1ccc(C(F)(F)F)cc1,inactive: 1.01
11,C[C@H](CO)N1C[C@H](C)[C@@H](CN(C)Cc2cccc3c2OCCCO3)OCc2cn(nn2)CCCC1=O,inactive: 1
12,C[C@H](CO)N1C[C@H](C)[C@@H](CN(C)S(C)(=O)=O)Oc2ccc(NS(=O)(=O)c3cn(C)cn3)cc2C1=O,inactive: 0.976
13,O=C1C(CCS(=O)c2ccccc2)C(=O)N(c2ccccc2)N1c1ccccc1 (configuration not stated),inactive: 1.09
14,COc1ccc(S(=O)(=O)N(C)C[C@H]2Oc3ccc(NC(=O)Cn4cnnn4)cc3C(=O)N([C@@H](C)CO)C[C@H]2C)cc1,inactive: 0.985
15,O=C1N[C@H](Cc2c[nH]c3ccccc23)COC(=O)[C@@H](Cc2ccc(F)cc2)CCC=CC[C@H]1CC(=O)N(CCO)Cc1ccccc1,inactive: 1.03
16,CC(C)NC(=O)Nc1ccc2c(c1)C(=O)N([C@H](C)CO)C[C@H](C)[C@@H](CN(C)Cc1ccccc1)OCCCC[C@@H](C)O2,inactive: 0.999
17,C[C@H](CO)N1C[C@H](C)[C@H](CN(C)Cc2ccc(C(=O)O)cc2)Oc2ccc(NC(=O)C3CC3)cc2C1=O,inactive: 1
18,O=C1N[C@H]2[C@@H]1[C@@H]1C=C[C@H]2C1,inactive: 1
19,COc1cc2c(cc1OC)CN(C(=O)[C@@H]1[C@H]3C(=O)O[C@H](c4ccccc4)[C@H](c4ccccc4)N3[C@H](c3ccc(O)cc3)[C@@]13C(=O)Nc1ccccc13)CC2,inactive: 1.03
